The source of these data is the supplement of paper PMC3334620.

Whole data set: some 33,000 sequences, median “E-score (-0.5 to 0.5)” near -0.035, cut for the highest 2% near 0.35. The list shows a part of the results.

The target in the test is T1, Pdr3 (UniProt P33200).
T1 sequence: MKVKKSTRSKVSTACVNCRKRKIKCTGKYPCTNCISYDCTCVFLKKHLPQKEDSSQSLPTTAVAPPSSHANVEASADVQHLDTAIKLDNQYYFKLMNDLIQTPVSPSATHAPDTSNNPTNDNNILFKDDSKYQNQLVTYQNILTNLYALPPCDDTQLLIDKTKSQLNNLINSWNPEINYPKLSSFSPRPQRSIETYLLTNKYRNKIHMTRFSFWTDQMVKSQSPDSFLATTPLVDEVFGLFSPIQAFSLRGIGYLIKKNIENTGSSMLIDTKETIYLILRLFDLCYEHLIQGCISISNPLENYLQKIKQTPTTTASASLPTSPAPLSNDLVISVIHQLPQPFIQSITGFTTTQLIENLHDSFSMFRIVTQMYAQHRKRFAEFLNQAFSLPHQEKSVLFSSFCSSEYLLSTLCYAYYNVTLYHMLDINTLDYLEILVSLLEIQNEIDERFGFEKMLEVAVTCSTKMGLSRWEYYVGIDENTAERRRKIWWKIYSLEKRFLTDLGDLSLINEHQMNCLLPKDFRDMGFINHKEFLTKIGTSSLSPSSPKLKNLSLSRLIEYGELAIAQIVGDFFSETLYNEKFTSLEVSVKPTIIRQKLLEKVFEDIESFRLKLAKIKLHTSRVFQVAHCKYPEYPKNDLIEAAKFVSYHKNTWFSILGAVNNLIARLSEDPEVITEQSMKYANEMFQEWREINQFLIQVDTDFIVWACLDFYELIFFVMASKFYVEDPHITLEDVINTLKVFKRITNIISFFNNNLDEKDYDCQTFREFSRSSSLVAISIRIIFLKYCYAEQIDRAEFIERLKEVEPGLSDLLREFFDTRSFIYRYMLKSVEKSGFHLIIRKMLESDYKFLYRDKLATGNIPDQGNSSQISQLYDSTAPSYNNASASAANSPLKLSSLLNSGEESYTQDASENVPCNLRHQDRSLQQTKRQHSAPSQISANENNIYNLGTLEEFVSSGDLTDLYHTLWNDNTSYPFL
As to the kind of experiment: PBM E-score (8-mer binding enrichment) (E-score (-0.5 to 0.5)); higher = stronger / more preferred TF binding; most listed sequences are background and not binding sites. The settings on record: protein concentration: 200 nM; construct: GST-full length. On the procedure:
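Universal 'all 10-mer' protein binding microarrays (Agilent AMADID 015681) probed with GST-tagged S. cerevisiae TFs (full-length or DBD) made by in vitro transcription/translation (PURExpress), about 100-200 nM. Bound TF was detected with fluorescent anti-GST. Each ungapped 8-mer (which stands for itself and its reverse complement) is scored by the PBM enrichment score (E-score), a modified Wilcoxon-Mann-Whitney statistic from -0.5 to +0.5, computed with the Universal PBM Analysis Suite. Scale: above 0.35 generally sequence-specific binding.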
Take ATCAAGTC: the “PBM E-score” value is -0.158.
For ACCCACAG, the “PBM E-score” value is -0.278.
To CGCGAATA belongs 0.15.
Turning to CAGAAATC, the “PBM E-score” value was -0.108.
To CAGACGTC belongs -0.23; to CCGTGAAC, 0.234; to CGATTTTA, -0.107.
As for AAGACCAG, the “PBM E-score” value is -0.0462.
With AACTACGC, the “PBM E-score” value was determined as 0.0535.
To GTCCACAC belongs -0.00599; to GATATATC, 0.199; to ACTGAGTA, -0.219.
As to CTGGAATA, the “PBM E-score” value amounted to 0.08.
With AACAGGCA, the “PBM E-score” value was -0.182.
As to GTCACCCA, the “PBM E-score” value was -0.0756.
To CTTACACA belongs -0.285; to CGTTTAGA, -0.0405; to GAGCGCCA, 0.0542.
As for GTAGCAAC, the “PBM E-score” value was -0.0159.
With CACGTTGG, the “PBM E-score” value is -0.3.
Next, ACGGCGCG: 0.272; ACTCCATA: -0.0901.
For CGTCGACC, the “PBM E-score” value turned out to be 0.0668.
Turning to ATAGCCGC, the “PBM E-score” value stood at 0.14.
Next, CACCGCAG: 0.0596; ACAGCAAA: -0.0725.
In the case of CGTGGAAA, the “PBM E-score” value came out at 0.243.
For AGAGCATA, the “PBM E-score” value was -0.0889.
Next, CGCAGCAC: -0.036; AATATGGG: -0.0889.
In the case of CTTGCTCA, the “PBM E-score” value was -0.164.
To ACATACAT belongs 0.0484; to GCCGGAAC, 0.476; to ACATTTCA, 0.0369.
For ATAGTTCA, the “PBM E-score” value turned out to be 0.0132.
For ATAATGCA, the “PBM E-score” value is -0.184.
Next, AATCCCGA: 0.358; ACACCCGG: 0.291.
To AGTTGCAT belongs 0.0468; to CGTCTGCC, 0.0736; to ATTCTTGC, 0.0442.
For GCTCGGAC, the “PBM E-score” value was determined as 0.297.
Take ATAGCAGA: the “PBM E-score” value was -0.0936.
Regarding AAGCCGCA, the “PBM E-score” value worked out at 0.112.
AGCCAAGC: the “PBM E-score” value was -0.227.
To GCTCTCAA belongs 0.0132; to GATTCCCC, 0.0929; to AACTGTTG, -0.0404.
For the sequence GAAGTCGA, the “PBM E-score” value worked out at 0.0196.
ATGGTTTG: the “PBM E-score” value was determined as 0.0993.
On to GAAAGGCC, for which the “PBM E-score” value was found to be 0.0228.
For the sequence GGGAACCA, the “PBM E-score” value is -0.0124.
For the sequence GGGGACTA, the “PBM E-score” value was -0.208.
As for CTGGTACA, the “PBM E-score” value is -0.207.
Turning to CAAAACAG, the “PBM E-score” value is -0.103.
Regarding CTAGATAC, the “PBM E-score” value was determined as 0.0838.
In the case of AATCGGAG, the “PBM E-score” value turned out to be 0.276.
On to CAAGACAA, for which the “PBM E-score” value is 0.0377.
For the sequence AAAACTAT, the “PBM E-score” value is -0.0359.
Next, AGTAAAGA: 0.041; AATTTATC: 0.273; ACCTGGAC: -0.0916.
Turning to GAACACCC, the “PBM E-score” value stood at 0.1.
With GCGACAGA, the “PBM E-score” value turned out to be 0.0984.
Regarding TTGTACAA, the “PBM E-score” value is -0.294.
Consider AGGTAAAA, for which the “PBM E-score” value was -0.157.
Regarding GCAGCTGA, the “PBM E-score” value came out at 0.105.
As to AATCTTTG, the “PBM E-score” value is -0.166.
As to CTACAAAA, the “PBM E-score” value was 0.0915.
As to TGCTCCCA, the “PBM E-score” value was -0.0732.
With GGGTGCCA, the “PBM E-score” value stood at 0.00823.
With CTAGGTCC, the “PBM E-score” value was 0.0472.
Regarding AGCCACCG, the “PBM E-score” value worked out at 0.0963.
Turning to ACGCAGGC, the “PBM E-score” value is -0.0957.
Consider AAGTCCTG, for which the “PBM E-score” value was -0.175.
For TAAGGTGA, the “PBM E-score” value is -0.101.
On to CGAAGTAG, for which the “PBM E-score” value worked out at 0.0985.
For the sequence ATATTAAA, the “PBM E-score” value came to 0.238.
Next, CTTTACGA: -0.218; CGGTACCA: 0.0596; AAAAAGGA: -0.0374.
Take TGTTAAAA: the “PBM E-score” value is -0.16.
As for CCTGAAGC, the “PBM E-score” value is -0.341.
Next, CTCAGGTA: -0.138.
To ACGGCTCC belongs 0.227; to ATTAATAC, 0.186.
In the case of GAGGCCTC, the “PBM E-score” value is -0.116.
In the case of ACAACGAC, the “PBM E-score” value was -0.00083.
As for CCTAGGCA, the “PBM E-score” value is -0.08.
As for ACGTTAGC, the “PBM E-score” value was -0.0209.
Consider ATGTACTG, for which the “PBM E-score” value was -0.138.
With CAGTAAAC, the “PBM E-score” value was -0.0301.
As for CGGCTGAG, the “PBM E-score” value turned out to be 0.0831.
Consider CTCCCGAG, for which the “PBM E-score” value was found to be 0.0556.
